# Laboratory results from patent US20250325717A1, “ANTI-NUCLEOPHOSMIN 1 ANTIBODY AND ANTIBODY CONJUGATE COMBINATION THERAPIES” (The Children's Medical Center Corporation, priority 2022, published 2025).
# B1: Ab2 (antibody)
# heavy: [sequence of about 100 residues not given]WRNNAFDYWGQGTLVTVSSAKTTAPSVYPLAPVCGDTTGSSVTLGCLVKGYFPEPVTLTWNSGSLSSGVHTFPAVLQSDLYTLSSSVTVTSSTWPSQSITCNVAHPASSTKVDKKIEPRGPTIKPCPPCKCPAPNLLGGPSVFIFPPKIKDVLMISLSPIVTCVVVDVSEDDPDVQISWFVNNVEVHTAQTQTHREDYNSTLRVVSALPIQHQDWMSGKEFKCKVNNKDLPAPIERTISKPKGSVRAPQVYVLPPPEEEMTKKQVTLTCMVTDFMPEDIYVEWTNNGKTELNYKNTEPVLDSDGSYFMYSKLRVEKKNWVERNSYSCSVVHEGLHNHHTTKSFSRTPGK
# light: SSELTQDPAVSVALGQTVRITCQGDSLRSYYASWYQQKPGQAPVLVIYGKNNRPSGIPDRFSGSSSGNTASLTITGAQAEDEADYYCNSSPRLKHRVVFGGGTKLTVLGQPKSSPSVTLFPPSSEELETNKATLVCTITDFYPGVVTVDWKVDGTPVTQGMETTQPSKQSNNKYMASSYLTLTARAWERHSSYSCQVTHEGHTVEKSLSRADCS
# How the values were obtained:
# Format in all cases: cell-based
# [1] = target: T1, surface localized NPM1 on primary murine MLL-rearranged AML cells (Mus musculus, UniProt Q61937); assay: FACS binding to primary murine MLL-rearranged AML cells
# T1 construct: endogenous in cells; host or cells: primary murine MLL-rearranged AML cells
# T1 sequence (Q61937 whole entry): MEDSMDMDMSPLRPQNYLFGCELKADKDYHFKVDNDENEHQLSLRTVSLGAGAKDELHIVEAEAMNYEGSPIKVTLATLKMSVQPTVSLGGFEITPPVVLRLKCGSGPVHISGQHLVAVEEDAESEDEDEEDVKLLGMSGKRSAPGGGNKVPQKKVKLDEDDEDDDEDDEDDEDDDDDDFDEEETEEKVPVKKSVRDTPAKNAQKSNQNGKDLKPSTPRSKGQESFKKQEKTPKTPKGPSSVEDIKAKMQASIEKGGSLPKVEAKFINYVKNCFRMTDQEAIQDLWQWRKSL
# Source text: (§1) Given that a variety of murine and human leukemia cell lines express cell surface WT and/or mutant NPM1, it was subsequently assessed whether the isolated antibodies could also bind to the surface of these cells. […] These antibodies could further be used in other applications, including, for example, diagnostic agents by instead conjugating the antibodies with an imaging agent, which can in turn be used to locate and measure the relative abundance of cancer cells in a patient.
# [2] = tested on: surface localized NPM1 on primary murine NPM1c AML cells; assay: FACS binding to primary murine NPM1c AML cells
# Source text: as §1
# [3] = tested on: NPM1 on human patient derived xenograft (PDX) cells; assay: FACS binding to human PDX cells transplanted into a mouse model
# Source text: as §1
# [4] = tested on: host murine bone marrow cells; assay: FACS binding to host murine bone marrow cells of PDX mice; details: host bone marrow of PDX mouse model
# Source text: as §1
molecule,measurement,setting,value
B1,binding to surface localized NPM1,[1],capable of binding
same,binding to surface localized NPM1,[2],capable of binding
same,binding to NPM1 on PDX cells,[3],bound
same,binding to host murine bone marrow cells,[4],without binding
